This data set relates to ATP. Put plainly: switch fluorescence ratio, 500 uM ATP over buffer (Cy3 cluster intensity, sum of 5 cycles each) (fold (ratio)); higher = stronger signal-on switching upon ATP binding; sequences stand for … in TCGTCGGCAGCGTCAGATGTGTATAAGAGACAGTTTTTTTTTTTTTTTTTTTTTTTTT…TC. Particulars: aptamer strand: ATP DNA aptamer (quencher-CACCTGGGGGAGTATTGCGGAGGAAGG + anchor), 100 nM annealed; ATP concentration: 500 uM; one replicate. In outline:
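The quencher-labelled ATP aptamer, at 100 nM, was annealed to Cy3-labelled switching-strand clusters on a modified Illumina MiSeq flow-cell. The clusters were imaged in selection buffer, then after 15 min with 500 uM ATP at 22 °C, and this buffer/ATP cycle ran five times with NaOH stripping and re-annealing between runs. Per-cluster fluorescence ratios, summed target-cycle over summed buffer-cycle Cy3 intensity, were averaged per switch-domain sequence. Clusters outside 100-1000 RFU were excluded.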

In the supplement of paper PMC10126150 one finds switch fluorescence ratio data, which are given here for 79 sequences.

Sequences with one replicate were seen in a single cluster, so their values are uncertain.
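Note: ATP exposure 15 min at 22 °C before imaging.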

As to AATAAGACTT, the switch fluorescence ratio came to 0.982.

As for AAAGGTTT, the switch fluorescence ratio was determined as 0.999.

On to CCCCCCTGAC, for which the switch fluorescence ratio stood at 1.96.

With AAGTCTCACG, the switch fluorescence ratio worked out at 1.03.

Regarding AGACGGGGTG, the switch fluorescence ratio came to 1.02.

As for CAACGCACGG, the switch fluorescence ratio stood at 1.82.

For TAAATGAAGA, the switch fluorescence ratio came out at 0.973.

Take TTATTATGTT: the switch fluorescence ratio turned out to be 1.02.

Regarding CCTTAGTGAT, the switch fluorescence ratio came out at 1.32.

For the sequence CTTCTCGCAC, the switch fluorescence ratio was determined as 5.59.

In the case of TTAAATGTAT, the switch fluorescence ratio worked out at 1.07.

For TCCAAGACAT, the switch fluorescence ratio amounted to 1.04.

Consider AGCCCCAAT, for which the switch fluorescence ratio amounted to 1.09.

In the case of TATGTAAGTG, the switch fluorescence ratio was found to be 1.01.

As to TCCGGGGGAA, the switch fluorescence ratio is 1.08.

Regarding CGTCTTTTCC, the switch fluorescence ratio is 0.986.

On to GCAATAGGTC, for which the switch fluorescence ratio stood at 1.82.

As for CTGTTAAACG, the switch fluorescence ratio was 0.956.

Consider TCTAGTTTAA, for which the switch fluorescence ratio worked out at 1.01.

As for TCGTGAGCTT, the switch fluorescence ratio was 1.05.

With TTTGGTGACC, the switch fluorescence ratio was 1.36.

Take GCATGTGTTA: the switch fluorescence ratio turned out to be 0.964.

Regarding TAAACTAGTT, the switch fluorescence ratio was 0.99.

On to TGAGAAAGCT, for which the switch fluorescence ratio was 1.28.

Turning to TGCTTGGTCG, the switch fluorescence ratio stood at 0.984.

As for TATAGCACAT, the switch fluorescence ratio was 1.13.

TGCGGATTAA: the switch fluorescence ratio was found to be 0.972.

With AGGATCCTGT, the switch fluorescence ratio came to 0.982.

As for TTTCCAGGAG, the switch fluorescence ratio came out at 1.21.

TTGAGTTTA: the switch fluorescence ratio was 0.99.

For TTTATGCATC, the switch fluorescence ratio came to 1.39.

As for TAGATTTAGG, the switch fluorescence ratio was determined as 0.991.

With CACTCTTGGA, the switch fluorescence ratio was 0.975.

With GCTATTAGTA, the switch fluorescence ratio was 0.986.

Turning to ATGTTGCGAA, the switch fluorescence ratio was determined as 0.991.

Turning to AATTTAAG, the switch fluorescence ratio was 0.995.

In the case of GGCGCGGACA, the switch fluorescence ratio amounted to 1.03.

For TTCTCCTACT, the switch fluorescence ratio was found to be 1.1.

In the case of TGGGTAGCGT, the switch fluorescence ratio is 1.05.

With ACAGGTTATT, the switch fluorescence ratio is 0.995.

With TGTTAGCTA, the switch fluorescence ratio is 1.03.

On to TCCTTCTTTG, for which the switch fluorescence ratio turned out to be 0.966.

For the sequence TACCGCCGGG, the switch fluorescence ratio came to 1.04.

As for TTCGATATCC, the switch fluorescence ratio is 0.976.

For TGGCAGGCGG, the switch fluorescence ratio came out at 1.

Regarding GGGGGGCA, the switch fluorescence ratio came out at 1.02.

Turning to GTGGTCACTG, the switch fluorescence ratio was 1.06.

In the case of AATATGCGCT, the switch fluorescence ratio was determined as 0.944.

Turning to TATGTGATAA, the switch fluorescence ratio was 0.986.

For TTGGTTCCAC, the switch fluorescence ratio came out at 1.06.

GGGCGGGGAG: the switch fluorescence ratio turned out to be 1.02.

For AAATAGGGGC, the switch fluorescence ratio turned out to be 0.907.

As for GCAGAGCAGG, the switch fluorescence ratio came to 1.16.

With CCTGTGGGGC, the switch fluorescence ratio came out at 0.963.

For TGTATTGAGG, the switch fluorescence ratio worked out at 1.02.

As to GTCTTCTAGA, the switch fluorescence ratio worked out at 1.04.

Turning to TTTAGAAGTC, the switch fluorescence ratio is 0.954.

On to GCGTTAGAGT, for which the switch fluorescence ratio worked out at 1.06.

Turning to GACTAGGTGG, the switch fluorescence ratio was 0.957.

For TTAATCGTAC, the switch fluorescence ratio worked out at 1.25.

Consider CGGTCTAGTG, for which the switch fluorescence ratio came to 0.97.

For the sequence AAGAATTAAG, the switch fluorescence ratio was 1.01.

As to GGGGGAGAGT, the switch fluorescence ratio stood at 0.977.

Regarding ACCATTGCAG, the switch fluorescence ratio is 0.978.

In the case of GGTTGTTATT, the switch fluorescence ratio is 1.02.

Turning to GTGTATGGC, the switch fluorescence ratio is 1.04.

On to TGGACTGAGT, for which the switch fluorescence ratio is 1.02.

Turning to CAAGATAAGA, the switch fluorescence ratio worked out at 0.993.

Take TTTAGTGGTG: the switch fluorescence ratio worked out at 0.969.

Take CTTGCTACAA: the switch fluorescence ratio came out at 1.08.

On to AGAAGACTGA, for which the switch fluorescence ratio turned out to be 1.07.

As to CTAAGTTTTA, the switch fluorescence ratio was 1.03.

With GCCGTAATCG, the switch fluorescence ratio was determined as 1.01.

CATTGCCGAA: the switch fluorescence ratio was 0.988.

As to CGGCACGGGT, the switch fluorescence ratio was 0.974.

For the sequence CTCACGGGTC, the switch fluorescence ratio turned out to be 1.08.

As to ACGCGACGTT, the switch fluorescence ratio was determined as 1.06.

On to TCGCGTGGTC, for which the switch fluorescence ratio turned out to be 1.03.

Take GTTACGAC: the switch fluorescence ratio stood at 1.19.
